Reference: FireProtDB (doi:10.1093/protein/13.10.691)

Conditions: Gallus gallus; pH 2.7; Thermal; DSC; glycine 0.05 M; reversible: yes

Lysozyme C wild type (no sequence given)
Tm: 65.6 °C | heat capacity change of unfolding: 1.58 kcal/mol/K | unfolding enthalpy (calorimetric): 114 kcal/mol
